From the supplement of paper PMC12217912
The list shows a part of the results. Sequences were assembled here from the parent chain. Inactive controls read about 0.05.

B1: TEV protease; numbered along this chain (parent)
chain: MGESLFKGPRDYNPISSSICHLTNESDGHTTSLYGIGFGPFIITNKHLFRRNNGTLVVQSLHGVFKVKDTTTLQQHLVDGRDMIIIRMPKDFPPFPQKLKFREPQREERICLVTTNFQTKSMSSMVSDTSCTFPSGDGIFWKHWIQTKDGQCGSPLVSTRDGFIVGIHSASNFTNTNNYFTSVPKNFMELLTNQEAQQWVSGWRLNADSVLWGGHKVFMVKPEEPFQPVKEATQL

Variants of: B1
Assay: raw area under fraction-flipped curve 0-4 h after induction (AUC4h, not background-subtracted), DNA-recorder readout of cleavage of the substrate (dimensionless); higher = more cleavage of the substrate by the protease variant
Settings: temperature: 34 °C; time window: 0-4 h after rhamnose induction
Protocol: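 In vivo DNA recorder in E. coli TOP10(DE3) ΔrhaA at 34 °C. Each TEVp single-site mutant (parent TEVp 0) is paired with a single-site variant of the 7-mer TEVs (canonical ENLYFQ|S). The substrate sits between flexible linkers in a Bxb1-sfGFP-TEVs-SsrA fusion, so cleavage stabilises Bxb1 and speeds flipping of a recombination array, read by NGS. The value is the raw area under the fraction-flipped curve over 0-4 h after rhamnose induction (AUC4h), with ≥20 reads per time point. It is not background-subtracted; inactive controls average about 0.047.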
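Note: Bxb1 expression induced with 0.2% (w/v) L-rhamnose at OD600 near 0.5, cultures sampled hourly, flipped fraction per protease–substrate barcode pair counted by paired-end Illumina sequencing.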

Row | Variant | area with substrate EALYFQS | area with substrate ECLYFQS | area with substrate EDLYFQS | area with substrate EELYFQS | area with substrate EFLYFQS | area with substrate EGLYFQS | area with substrate EHLYFQS | area with substrate EILYFQS | area with substrate EKLYFQS | area with substrate EMLYFQS | area with substrate EPLYFQS | area with substrate EQLYFQS | area with substrate ESLYFQS | area with substrate EVLYFQS | area with substrate EWLYFQS | area with substrate ELLYFQS | area with substrate ERLYFQS | area with substrate ETLYFQS | area with substrate EYLYFQS
1 | MGESLFKGPRDYNPISSSICHLTNESDGHTTSLYGIGFAPFIITNKHLFRRNNGTLVVQSLHGVFKVKDTTTLQQHLVDGRDMIIIRMPKDFPPFPQKLKFREPQREERICLVTTNFQTKSMSSMVSDTSCTFPSGDGIFWKHWIQTKDGQCGSPLVSTRDGFIVGIHSASNFTNTNNYFTSVPKNFMELLTNQEAQQWVSGWRLNADSVLWGGHKVFMVKPEEPFQPVKEATQL [G39A] | 0.0516 | 0.0457 | 0.0506 | 0.0529 | 0.0611 | 0.0445 | 0.0472 | 0.0493 | 0.0594 | 0.0376 | 0.0569 | 0.0496 | 0.0477 | 0.0429 | 0.0461 |  |  |  | 
2 | MGESLFKGPRDYNPISSSICHLTNESDGHTTSLYGIGFGCFIITNKHLFRRNNGTLVVQSLHGVFKVKDTTTLQQHLVDGRDMIIIRMPKDFPPFPQKLKFREPQREERICLVTTNFQTKSMSSMVSDTSCTFPSGDGIFWKHWIQTKDGQCGSPLVSTRDGFIVGIHSASNFTNTNNYFTSVPKNFMELLTNQEAQQWVSGWRLNADSVLWGGHKVFMVKPEEPFQPVKEATQL [P40C] | 0.102 | 0.112 | 0.129 | 0.141 | 0.115 |  | 0.0957 | 0.0893 | 0.0999 | 0.101 | 0.118 | 0.129 | 0.112 | 0.0897 | 0.0971 | 0.113 | 0.0985 | 0.111 | 0.11
3 | MGESLFKGPRDYNPISSSICHLTNESDGHTTSLYGIGFGGFIITNKHLFRRNNGTLVVQSLHGVFKVKDTTTLQQHLVDGRDMIIIRMPKDFPPFPQKLKFREPQREERICLVTTNFQTKSMSSMVSDTSCTFPSGDGIFWKHWIQTKDGQCGSPLVSTRDGFIVGIHSASNFTNTNNYFTSVPKNFMELLTNQEAQQWVSGWRLNADSVLWGGHKVFMVKPEEPFQPVKEATQL [P40G] | 0.127 | 0.102 | 0.138 | 0.0986 |  |  |  | 0.109 | 0.116 |  | 0.0895 | 0.116 | 0.109 | 0.103 | 0.106 |  | 0.118 |  | 0.119
4 | MGESLFKGPRDYNPISSSICHLTNESDGHTTSLYGIGFGIFIITNKHLFRRNNGTLVVQSLHGVFKVKDTTTLQQHLVDGRDMIIIRMPKDFPPFPQKLKFREPQREERICLVTTNFQTKSMSSMVSDTSCTFPSGDGIFWKHWIQTKDGQCGSPLVSTRDGFIVGIHSASNFTNTNNYFTSVPKNFMELLTNQEAQQWVSGWRLNADSVLWGGHKVFMVKPEEPFQPVKEATQL [P40I] | 0.101 | 0.0963 | 0.104 | 0.1 |  | 0.0802 | 0.0989 |  | 0.108 | 0.119 |  | 0.099 | 0.0948 | 0.0711 | 0.0743 | 0.0819 | 0.0926 |  | 
5 | MGESLFKGPRDYNPISSSICHLTNESDGHTTSLYGIGFGKFIITNKHLFRRNNGTLVVQSLHGVFKVKDTTTLQQHLVDGRDMIIIRMPKDFPPFPQKLKFREPQREERICLVTTNFQTKSMSSMVSDTSCTFPSGDGIFWKHWIQTKDGQCGSPLVSTRDGFIVGIHSASNFTNTNNYFTSVPKNFMELLTNQEAQQWVSGWRLNADSVLWGGHKVFMVKPEEPFQPVKEATQL [P40K] | 0.084 |  | 0.125 |  | 0.114 | 0.126 |  | 0.129 | 0.109 | 0.117 | 0.115 | 0.136 | 0.103 | 0.088 | 0.119 | 0.116 | 0.106 |  | 0.102
6 | MGESLFKGPRDYNPISSSICHLTNESDGHTTSLYGIGFGLFIITNKHLFRRNNGTLVVQSLHGVFKVKDTTTLQQHLVDGRDMIIIRMPKDFPPFPQKLKFREPQREERICLVTTNFQTKSMSSMVSDTSCTFPSGDGIFWKHWIQTKDGQCGSPLVSTRDGFIVGIHSASNFTNTNNYFTSVPKNFMELLTNQEAQQWVSGWRLNADSVLWGGHKVFMVKPEEPFQPVKEATQL [P40L] | 0.102 |  | 0.0986 | 0.131 | 0.0937 | 0.0966 | 0.0045 | 0.093 |  |  | 0.0669 | 0.129 | 0.0944 | 0.102 |  | 0.0858 |  | 0.0621 | 
7 | MGESLFKGPRDYNPISSSICHLTNESDGHTTSLYGIGFGNFIITNKHLFRRNNGTLVVQSLHGVFKVKDTTTLQQHLVDGRDMIIIRMPKDFPPFPQKLKFREPQREERICLVTTNFQTKSMSSMVSDTSCTFPSGDGIFWKHWIQTKDGQCGSPLVSTRDGFIVGIHSASNFTNTNNYFTSVPKNFMELLTNQEAQQWVSGWRLNADSVLWGGHKVFMVKPEEPFQPVKEATQL [P40N] | 0.134 | 0.113 | 0.144 | 0.143 | 0.102 |  |  | 0.11 | 0.108 | 0.13 | 0.132 | 0.133 | 0.181 | 0.0976 | 0.0517 | 0.0969 | 0.106 | 0.104 | 
8 | MGESLFKGPRDYNPISSSICHLTNESDGHTTSLYGIGFGRFIITNKHLFRRNNGTLVVQSLHGVFKVKDTTTLQQHLVDGRDMIIIRMPKDFPPFPQKLKFREPQREERICLVTTNFQTKSMSSMVSDTSCTFPSGDGIFWKHWIQTKDGQCGSPLVSTRDGFIVGIHSASNFTNTNNYFTSVPKNFMELLTNQEAQQWVSGWRLNADSVLWGGHKVFMVKPEEPFQPVKEATQL [P40R] | 0.12 |  | 0.148 |  | 0.0943 |  | 0.116 | 0.121 | 0.112 | 0.107 |  | 0.131 | 0.133 | 0.0917 |  |  | 0.0922 |  | 0.129
9 | MGESLFKGPRDYNPISSSICHLTNESDGHTTSLYGIGFGTFIITNKHLFRRNNGTLVVQSLHGVFKVKDTTTLQQHLVDGRDMIIIRMPKDFPPFPQKLKFREPQREERICLVTTNFQTKSMSSMVSDTSCTFPSGDGIFWKHWIQTKDGQCGSPLVSTRDGFIVGIHSASNFTNTNNYFTSVPKNFMELLTNQEAQQWVSGWRLNADSVLWGGHKVFMVKPEEPFQPVKEATQL [P40T] | 0.133 | 0.119 |  | 0.133 | 0.0906 | 0.0841 | 0.108 | 0.0873 | 0.118 | 0.13 |  |  | 0.108 | 0.0892 | 0.135 | 0.0861 | 0.107 | 0.128 | 
